From patent publication US20240141007A1

Target: PD-1 (UniProt Q15116)
Assay: cell-based or functional assay

Chain of UniProt Q15116 (Q15116 25-288 limits assumed): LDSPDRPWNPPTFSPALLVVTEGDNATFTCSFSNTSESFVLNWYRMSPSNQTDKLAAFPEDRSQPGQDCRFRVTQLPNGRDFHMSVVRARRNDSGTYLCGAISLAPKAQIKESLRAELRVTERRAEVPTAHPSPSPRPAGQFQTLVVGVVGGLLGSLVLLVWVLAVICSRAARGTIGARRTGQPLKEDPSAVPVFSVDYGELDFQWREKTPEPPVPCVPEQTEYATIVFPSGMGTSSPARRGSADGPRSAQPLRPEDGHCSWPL

B1: CM4 (antibody, not shown: a dimerising Fc or GST)
heavy 1: QVQLVQSGVEVKKPGASVKVSCKASGYTFTNYYMYWVRQAPGQGLEWMGGINPSNGGTNFNEKFKNRVTLTTDSSTTTAYMELKSLQFDDTAVYYCARRDYRFDMGFDYWGQGTTVTVSSASTKGPSVFPLAPSSKSTSGGTAALGCLVKDYFPEPVTVSWNSGALTSGVHTFPAVLQSSGLYSLSSVVTVPSSSLGTQTYICNVNHKPSNTKVDKKVEPKSC[about 150 residues cut from this listing]
heavy 2: QVQLVQSGVEVKKPGASVKVSCKASGYTFTNYYMYWVRQAPGQGLEWMGGINPSNGGTNFNEKFKNRVTLTTDSSTTTAYMELKSLQFDDTAVYYCARRDYRFDMGFDYWGQGTTVTVSSASTKGPSVFPLAPSSKSTSGGTAALGCLVKDYFPEPVTVSWNSGALTSGVHTFPAVLQSSGLYSLSSVVTVPSSSLGTQTYICNVNHKPSNTKVDKKVEPKSC
light: EIVLTQSPATLSLSPGERATLSCRASKGVSTSGYSYLHWYQQKPGQAPRLLIYLASYLESGVPARFSGSGSGTDFTLTISSLEPEDFAVYYCQHSRDLPLTFGGGTKVEIKRTVAAPSVFIFPPSDEQLKSGTASVVCLLNNFYPREAKVQWKVDNALQSGNSQESVTEQDSKDSTYSLSSTLTLSKADYEKHKVYACEVTHQGLSSPVTKSFNRGEC
  EC50 (nM), PD-1/PD-L1 Blockade Bioassay: 0.586 nM
